Source: the supplement of paper PMC12217912
This is one part of the list. Sequences were assembled here from the parent chain. Inactive controls read about 0.05.

B1: TEV protease; numbered along this chain (parent)
chain: MGESLFKGPRDYNPISSSICHLTNESDGHTTSLYGIGFGPFIITNKHLFRRNNGTLVVQSLHGVFKVKDTTTLQQHLVDGRDMIIIRMPKDFPPFPQKLKFREPQREERICLVTTNFQTKSMSSMVSDTSCTFPSGDGIFWKHWIQTKDGQCGSPLVSTRDGFIVGIHSASNFTNTNNYFTSVPKNFMELLTNQEAQQWVSGWRLNADSVLWGGHKVFMVKPEEPFQPVKEATQL

Variants of: B1
Assay: raw area under fraction-flipped curve 0-4 h after induction (AUC4h, not background-subtracted), DNA-recorder readout of cleavage of the substrate (dimensionless); higher = more cleavage of the substrate by the protease variant
Conditions: temperature: 34 °C; time window: 0-4 h after rhamnose induction
Description: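 In vivo DNA recorder in E. coli TOP10(DE3) ΔrhaA at 34 °C. Each TEVp single-site mutant (parent TEVp 0) is paired with a single-site variant of the 7-mer TEVs (canonical ENLYFQ|S). The substrate sits between flexible linkers in a Bxb1-sfGFP-TEVs-SsrA fusion, so cleavage stabilises Bxb1 and speeds flipping of a recombination array, read by NGS. The value is the raw area under the fraction-flipped curve over 0-4 h after rhamnose induction (AUC4h), with ≥20 reads per time point. It is not background-subtracted; inactive controls average about 0.047.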
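Further: Bxb1 expression induced with 0.2% (w/v) L-rhamnose at OD600 near 0.5, cultures sampled hourly, flipped fraction per protease–substrate barcode pair counted by paired-end Illumina sequencing.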

Row | Variant | area with substrate GNLYFQS | area with substrate KNLYFQS | area with substrate MNLYFQS | area with substrate QNLYFQS | area with substrate SNLYFQS | area with substrate WNLYFQS | area with substrate YNLYFQS | area with substrate TNLYFQS | area with substrate HNLYFQS | area with substrate INLYFQS | area with substrate LNLYFQS | area with substrate NNLYFQS | area with substrate PNLYFQS | area with substrate VNLYFQS
1 | MGESLFKGPRDYNPISSSICHLTNESDGHTTSLYGIGFGPFIITNKHLFRRNNGTLVVQSLHGVFKVKDTTTLQQHLVDGRDMIIIRMPKDFPPFPQKLKFREPQREERICLVTTNFQTKSMSSMVSDTSCTFPSGDGIFWKHWIQTKDGQCGSPLVSTRDGFIVGIHSASNFTNTNNYFTSVPKNFMELLTNQEAQQWVSWWRLNADSVLWGGHKVFMVKPEEPFQPVKEATQL [G202W] | 0.06 | 0.0622 | 0.0304 | 0.0557 | 0.0552 | 0.0583 | 0.0516 |  |  |  |  |  |  | 
2 | MGESLFKGPRDYNPISSSICHLTNESDGHTTSLYGIGFGPFIITNKHLFRRNNGTLVVQSLHGVFKVKDTTTLQQHLVDGRDMIIIRMPKDFPPFPQKLKFREPQREERICLVTTNFQTKSMSSMVSDTSCTFPSGDGIFWKHWIQTKDGQCGSPLVSTRDGFIVGIHSASNFTNTNNYFTSVPKNFMELLTNQEAQQWVSGSRLNADSVLWGGHKVFMVKPEEPFQPVKEATQL [W203S] | 0.068 |  | 0.0595 |  | 0.0467 | 0.0515 |  | 0.0431 |  |  |  |  |  | 
3 | MGESLFKGPRDYNPISSSICHLTNESDGHTTSLYGIGFGPFIITNKHLFRRNNGTLVVQSLHGVFKVKDTTTLQQHLVDGRDMIIIRMPKDFPPFPQKLKFREPQREERICLVTTNFQTKSMSSMVSDTSCTFPSGDGIFWKHWIQTKDGQCGSPLVSTRDGFIVGIHSASNFTNTNNYFTSVPKNFMELLTNQEAQQWVSGWRLNADSVIWGGHKVFMVKPEEPFQPVKEATQL [L211I] | 0.08 |  |  | 0.0657 | 0.0603 | 0.0712 |  |  |  |  |  |  |  | 
4 | MGESLFKGPRDYNPISSSICHLTNESDGHTTSLYGIGFGPFIITNKHLFRRNNGTLVVQSLHGVFKVKDTTTLQQHLVDGRDMIIIRMPKDFPPFPQKLKFREPQREERICLVTTNFQTKSMSSMVSDTSCTFPSGDGIFWKHWIQTKDGQCGSPLVSTRDGFIVGIHSASNFTNTNNYFTSVPKNFMELLTNQEAQQWVSGWRLNADSVNWGGHKVFMVKPEEPFQPVKEATQL [L211N] | 0.0601 |  |  | 0.0872 | 0.0689 | 0.0604 | 0.0886 | 0.0647 | 0.125 | 0.0814 | 0.0686 | 0.0463 | 0.0692 | 
5 | MGESLFKGPRDYNPISSSICHLTNESDGHTTSLYGIGFGPFIITNKHLFRRNNGTLVVQSLHGVFKVKDTTTLQQHLVDGRDMIIIRMPKDFPPFPQKLKFREPQREERICLVTTNFQTKSMSSMVSDTSCTFPSGDGIFWKHWIQTKDGQCGSPLVSTRDGFIVGIHSASNFTNTNNYFTSVPKNFMELLTNQEAQQWVSGWRLNADSVLWGEHKVFMVKPEEPFQPVKEATQL [G214E] | 0.0499 |  | 0.0539 |  |  |  |  |  | 0.0629 | 0.0612 | 0.0684 |  | 0.0551 | 
6 | MGESLFKGPRDYNPISSSICHLTNESDGHTTSLYGIGFGPFIITNKHLFRRNNGTLVVQSLHGVFKVKDTTTLQQHLVDGRDMIIIRMPKDFPPFPQKLKFREPQREERICLVTTNFQTKSMSSMVSDTSCTFPSGDGIFWKHWIQTKDGQCGSPLVSTRDGFIVGIHSASNFTNTNNYFTSVPKNFMELLTNQEAQQWVSGWRLNADSVLWGGHKVFMVKLEEPFQPVKEATQL [P222L] | 0.0629 | 0.0764 | 0.0466 |  |  | 0.0621 | 0.0558 | 0.0513 | 0.0485 |  |  | 0.0533 | 0.0572 | 0.071
7 | MGESLFKGPRDYNPISSSICHLTNESDGHTTSLYGIGFGPFIITNKHLFRRNNGTLVVQSLHGVFKVKDTTTLQQHLVDGRDMIIIRMPKDFPPFPQKLKFREPQREERICLVTTNFQTKSMSSMVSDTSCTFPSGDGIFWKHWIQTKDGQCGSPLVSTRDGFIVGIHSASNFTNTNNYFTSVPKNFMELLTNQEAQQWVSGWRLNADSVLWGGHKVFMVKTEEPFQPVKEATQL [P222T] | 0.0709 | 0.0461 | 0.0866 |  |  | 0.0766 |  | 0.0722 | 0.0448 |  |  |  |  | 
8 | MGESLFKGPRDYNPISSSICHLTNESDGHTTSLYGIGFGPFIITNKHLFRRNNGTLVVQSLHGVFKVKDTTTLQQHLVDGRDMIIIRMPKDFPPFPQKLKFREPQREERICLVTTNFQTKSMSSMVSDTSCTFPSGDGIFWKHWIQTKDGQCGSPLVSTRDGFIVGIHSASNFTNTNNYFTSVPKNFMELLTNQEAQQWVSGWRLNADSVLWGGHKVFMVKPEEPFQPVKIATQL [E231I] | 0.0572 | 0.0557 |  |  | 0.0519 | 0.0694 | 0.0536 | 0.0639 | 0.0606 | 0.0656 | 0.061 | 0.0605 | 0.0559 | 0.0615
9 | MGESLFKGPRDYNPISSSICHLTNESDGHTTSLYGIGFGPFIITNKHLFRRNNGTLVVQSLHGVFKVKDTTTLQQHLVDGRDMIIIRMPKDFPPFPQKLKFREPQREERICLVTTNFQTKSMSSMVSDTSCTFPSGDGIFWKHWIQTKDGQCGSPLVSTRDGFIVGIHSASNFTNTNNYFTSVPKNFMELLTNQEAQQWVSGWRLNADSVLWGGHKVFMVKPEEPFQPVKEAPQL [T233P] | 0.0756 |  | 0.0646 |  | 0.0761 | 0.052 |  | 0.0641 |  |  |  |  |  | 
10 | MAESLFKGPRDYNPISSSICHLTNESDGHTTSLYGIGFGPFIITNKHLFRRNNGTLVVQSLHGVFKVKDTTTLQQHLVDGRDMIIIRMPKDFPPFPQKLKFREPQREERICLVTTNFQTKSMSSMVSDTSCTFPSGDGIFWKHWIQTKDGQCGSPLVSTRDGFIVGIHSASNFTNTNNYFTSVPKNFMELLTNQEAQQWVSGWRLNADSVLWGGHKVFMVKPEEPFQPVKEATQL [G2A] |  | 0.0566 |  |  |  | 0.0589 |  | 0.0645 | 0.105 | 0.0614 |  |  |  | 
11 | MHESLFKGPRDYNPISSSICHLTNESDGHTTSLYGIGFGPFIITNKHLFRRNNGTLVVQSLHGVFKVKDTTTLQQHLVDGRDMIIIRMPKDFPPFPQKLKFREPQREERICLVTTNFQTKSMSSMVSDTSCTFPSGDGIFWKHWIQTKDGQCGSPLVSTRDGFIVGIHSASNFTNTNNYFTSVPKNFMELLTNQEAQQWVSGWRLNADSVLWGGHKVFMVKPEEPFQPVKEATQL [G2H] |  |  |  |  |  |  | 0.0662 | 0.105 | 0.0695 | 0.0058 | 0.072 |  |  | 0.0536
